# Results as given in PMC4336329 (PLoS ONE, 2015).
# Screen size: about 310,000 compounds; about 2,200 (0.71%) showed an effect of 50% or more. Effects have a minus sign here. The list shows a part of the results.
# Target: human ether-à-go-go-related gene (hERG) potassium channel (human, UniProt Q12809)
# Assay: primary screen, population patch clamp on CHO cells stably expressing hERG
# Sequence of human ether-à-go-go-related gene (hERG) potassium channel (Q12809 whole entry, looked up): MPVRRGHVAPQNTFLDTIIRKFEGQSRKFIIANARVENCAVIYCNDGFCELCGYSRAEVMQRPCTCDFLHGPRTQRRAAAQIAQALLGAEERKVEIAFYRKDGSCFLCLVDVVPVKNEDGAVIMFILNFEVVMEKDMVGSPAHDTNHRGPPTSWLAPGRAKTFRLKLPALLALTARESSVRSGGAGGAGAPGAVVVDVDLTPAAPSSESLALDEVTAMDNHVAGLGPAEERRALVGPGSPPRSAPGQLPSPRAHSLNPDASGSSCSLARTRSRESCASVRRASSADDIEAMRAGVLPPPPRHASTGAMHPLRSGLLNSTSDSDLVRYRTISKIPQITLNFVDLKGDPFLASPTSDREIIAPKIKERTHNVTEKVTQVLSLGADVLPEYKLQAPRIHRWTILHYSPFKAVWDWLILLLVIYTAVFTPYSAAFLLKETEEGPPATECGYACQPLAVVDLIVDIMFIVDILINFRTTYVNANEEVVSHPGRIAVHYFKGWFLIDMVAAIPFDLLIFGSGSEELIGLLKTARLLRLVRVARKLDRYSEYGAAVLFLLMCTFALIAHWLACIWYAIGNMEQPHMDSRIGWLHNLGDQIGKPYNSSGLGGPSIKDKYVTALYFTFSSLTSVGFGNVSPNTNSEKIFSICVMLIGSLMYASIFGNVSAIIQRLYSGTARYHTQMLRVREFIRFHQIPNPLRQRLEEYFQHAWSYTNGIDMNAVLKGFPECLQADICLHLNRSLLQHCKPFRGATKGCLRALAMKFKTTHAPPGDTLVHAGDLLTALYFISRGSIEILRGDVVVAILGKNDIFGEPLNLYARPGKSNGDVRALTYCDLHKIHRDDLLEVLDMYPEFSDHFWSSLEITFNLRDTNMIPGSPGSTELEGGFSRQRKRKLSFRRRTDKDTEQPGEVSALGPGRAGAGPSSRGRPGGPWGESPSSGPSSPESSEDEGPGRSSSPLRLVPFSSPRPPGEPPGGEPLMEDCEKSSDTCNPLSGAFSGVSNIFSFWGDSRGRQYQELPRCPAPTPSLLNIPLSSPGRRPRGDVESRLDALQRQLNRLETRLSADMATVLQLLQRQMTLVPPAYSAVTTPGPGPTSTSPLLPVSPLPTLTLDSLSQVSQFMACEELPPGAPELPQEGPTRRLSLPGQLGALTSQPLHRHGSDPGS
row,Structure (SMILES),"hERG current change (%, negative = inhibition) at 1uM"
1,Cc1ccccc1OCc1nnc(SCc2nc3ccccc3c(=O)[nH]2)n1C,9.26%
2,CN(Cc1ncc[nH]1)C(=O)CC1C(=O)NCCN1Cc1c(F)cccc1Cl (centres unmarked),12.3%
3,COc1ccc(NC(=O)Nc2ccc(Br)cn2)cc1OC,5.18%
4,O=C(Nc1cccc(O)c1)c1ccc(C(=O)c2ccccc2)o1,-1.55%
5,COc1ccc(C(=O)NCc2nnc(SCC(=O)N3CCCC3)o2)cc1OC,12.5%
6,CCOC(CNC(=O)Cc1c(C)nc2c(-c3ccccc3)c(C)nn2c1C)OCC,4.51%
7,NC(=O)C1c2ccccc2CSc2ccccc21 (centres unmarked),4.14%
8,CNC(=O)CCC(=O)Nc1ccc(C)cc1,7.38%
9,CC1(c2ccccc2)NC(=O)N(CC(=O)Nc2ccc3c(c2)OCO3)C1=O (centres unmarked),4.91%
10,COc1ccc(-n2c(Cc3cccn3C)nnc2SCC(=O)Nc2ccc3c(c2)OCCO3)cc1,1.16%
11,O=C(N/N=C/c1cccc(Oc2ccccc2)c1)c1ccccc1F,7.7%
12,O=C1C=C(NCc2ccccc2)C2(CCCCC2)O1,4.74%
13,CCCC(=O)NC(=S)Nc1ccc(NC(=O)c2cccs2)cc1,-3.11%
14,CC(=O)c1sc(NC(=O)C(C)Oc2ccc3c(C)cc(=O)oc3c2)nc1C (centres unmarked),13.7%
15,CSc1cccc(NC(=O)CN2C(=O)c3ccccc3S2(=O)=O)c1,5.37%
16,Cc1cccc2sc(NC(=O)CCNS(=O)(=O)c3cccc4nonc34)nc12,3.33%
17,CC(=O)Nc1nnc(CSCc2ccccc2F)s1,13.8%
18,N#Cc1c(NCCN)nc(-c2ccccc2)c2c1CCCC2,2.17%
19,Cc1cc([N+](=O)[O-])ccc1NC(=O)C[n+]1ccc(N(C)C)cc1.[Cl-],2.44%
20,CN(C)CCCN1C(=O)C(O)=C(C(=O)c2cc3ccccc3o2)C1c1ccccc1 (centres unmarked),8.14%
21,Cc1nn(-c2ccccc2)c(Oc2ccc(F)cc2)c1/C=N/n1cnnc1,-11.6%
22,CC(=O)Nc1ccc(S(=O)(=O)NC(C)c2ccccc2)cc1 (centres unmarked),12.9%

row,Structure (SMILES),"hERG current change (%, negative = inhibition) at 1uM"
1,Cc1ccnc(N=Cc2c(O)ccc3oc4c(c23)CCCC4)c1,5.18%
2,CC(C)Cn1c(-c2ccco2)nc2c(c(=O)c3ccccc3n2C)c1=O,-5.08%
3,CCOc1ccccc1C(=O)Nc1cc(=O)n(C)c(=O)n1C,9.12%
4,CCOc1ccc(-n2c(C)cc(C(=O)CCl)c2C)cc1,12.6%
5,COC(=O)N1CCc2c(sc(NC(=O)C3=COCCO3)c2C#N)C1,3.5%
6,O=C(CNC(=O)c1ccco1)OCC(=O)c1ccccc1Cl,6.37%
7,O=C1c2ccccc2C(=O)N1OCc1ccccc1[N+](=O)[O-],17.6%
8,COc1ccc(NC(=O)/C(=C\c2ccc(OS(=O)(=O)c3ccc(C)cc3)cc2)NC(=O)c2ccccc2)cc1,16.7%
9,N#Cc1c(-c2ccccc2F)cc(C2CC2)nc1SCC(=O)c1cccs1,20.5%
10,Cc1cc(=O)oc(C)c1C(=O)N1CCN(c2ccc(F)cc2)CC1,11.9%
11,Cc1oncc1C(=O)Nc1cccc(C#N)c1,10.1%
12,CCN(CC)C(=S)SC1=CCS(=O)(=O)C1,14.8%
13,CC(C)C[C@@]12C(=O)N(c3cccc(Cl)c3)C(=O)N1[C@H](c1ccc(F)cc1)[C@@H]1C(=O)N(C3CCCCC3)C(=O)[C@@H]12,8.58%
14,CCc1cc(=O)oc2c(C)c(OCC(=O)NCCN3CCOCC3)ccc12,12.8%
15,COCCNC(=S)N(CCc1c(C)[nH]c2ccc(OC)cc12)Cc1ccco1,9.99%
16,CN(c1nc(-c2ccc(Br)cc2)cs1)C1CCS(=O)(=O)C1 (centres unmarked),3.41%
17,CCOC(=O)/C(C#N)=C\c1ccc(N2CCN(C)CC2)cc1,-2.52%
18,COc1ccccc1C(=O)NC(=S)NC12CC3CC(CC(C3)C1)C2,-0.975%
19,Cc1cc(C)c2nc(N3C(=O)C(O)=C(C(=O)c4ccco4)C3c3ccc(O)cc3)sc2c1 (centres unmarked),17.5%
20,Cc1cc(C)cc(NC(=S)N2CCN(S(=O)(=O)c3ccccc3)CC2)c1,6.44%
21,COc1ccc(C(=O)OCC(=O)NC(=O)NC2CCCC2)c(O)c1,15%
22,CC(=O)c1ccc2c(c1)c1ccccc1n2CC(C)C,5.8%
